Results: publication PMC4336329 (PLoS ONE, 2015)
In all, about 310,000 compounds went through this assay and about 2,200 (0.71%) showed an effect of 50% or more. The effect is printed as a negative number. The list shows a part of the results.

target: human ether-à-go-go-related gene (hERG) potassium channel (human, UniProt Q12809); experiment: primary screen, population patch clamp on CHO cells stably expressing hERG
Sequence (Q12809 whole entry, looked up): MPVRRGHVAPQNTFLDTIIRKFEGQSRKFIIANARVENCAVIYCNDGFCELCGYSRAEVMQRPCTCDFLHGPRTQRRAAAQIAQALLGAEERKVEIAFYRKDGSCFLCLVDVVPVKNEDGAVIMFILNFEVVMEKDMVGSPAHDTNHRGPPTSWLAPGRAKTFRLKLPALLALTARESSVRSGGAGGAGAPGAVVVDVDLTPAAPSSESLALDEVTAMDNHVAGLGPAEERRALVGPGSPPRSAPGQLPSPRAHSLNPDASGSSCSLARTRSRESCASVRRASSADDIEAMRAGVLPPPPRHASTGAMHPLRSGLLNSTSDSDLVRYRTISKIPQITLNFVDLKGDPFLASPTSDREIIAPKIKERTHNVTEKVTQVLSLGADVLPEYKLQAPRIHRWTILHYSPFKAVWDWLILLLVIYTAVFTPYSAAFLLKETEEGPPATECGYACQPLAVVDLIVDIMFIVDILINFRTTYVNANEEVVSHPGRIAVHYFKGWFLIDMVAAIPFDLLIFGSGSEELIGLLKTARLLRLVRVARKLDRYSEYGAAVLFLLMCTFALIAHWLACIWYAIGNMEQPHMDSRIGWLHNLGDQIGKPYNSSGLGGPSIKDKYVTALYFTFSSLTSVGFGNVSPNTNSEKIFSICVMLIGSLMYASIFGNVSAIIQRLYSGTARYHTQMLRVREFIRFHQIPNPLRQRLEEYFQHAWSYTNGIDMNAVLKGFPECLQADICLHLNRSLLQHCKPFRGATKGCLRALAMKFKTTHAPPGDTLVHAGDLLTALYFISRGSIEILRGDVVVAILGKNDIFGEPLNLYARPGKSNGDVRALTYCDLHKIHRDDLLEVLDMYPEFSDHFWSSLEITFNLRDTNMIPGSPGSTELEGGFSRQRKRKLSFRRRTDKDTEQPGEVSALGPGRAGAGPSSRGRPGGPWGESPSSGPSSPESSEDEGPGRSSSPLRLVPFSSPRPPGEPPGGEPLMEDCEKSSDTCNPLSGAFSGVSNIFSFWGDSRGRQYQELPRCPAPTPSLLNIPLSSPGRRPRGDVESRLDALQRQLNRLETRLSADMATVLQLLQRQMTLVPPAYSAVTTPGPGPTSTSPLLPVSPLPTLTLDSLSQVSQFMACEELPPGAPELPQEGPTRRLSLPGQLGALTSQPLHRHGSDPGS

SMILES	hERG current change (%, negative = inhibition) at 1uM [%]
CC(=O)NCCC(=O)N1CCCC(N2CCN(c3cccc(Cl)c3)CC2)C1 (stereo not shown)	20.1
COC(=O)C1=CO[C@H](C)[C@H]2CN3CC[C@@]4(C(=O)Nc5ccccc54)[C@@H]3C[C@H]12	4.41
CCc1c(C(=O)N/N=C/c2ccc(C)o2)csc1C	4.97
COc1ccc(N2CCN(C(=O)CCNS(=O)(=O)c3ccc4c(c3)CCC(=O)N4)CC2)cc1	-0.211
FC(F)Oc1ccc(-c2c[n+]3c(n2-c2ccccc2)CCCCC3)cc1	-33.1
CC1=Nn2c(nc(-c3ccccc3)c2-c2ccccc2)N(CC(N)=O)C(=O)C1	10.4
O=S(=O)(CCOc1ccccc1)N1CCOCC1	13.8
O=C(c1ccc([N+](=O)[O-])cc1[N+](=O)[O-])N1CCCC1	13.2
CC(=O)C1=C(O)C(=O)N(CCCCCC(=O)O)C1c1ccc(N(C)C)cc1 (stereo not shown)	5.97
N#CCSc1nc2cc(C(=O)N3CCC(C(N)=O)CC3)ccc2c2nc3ccccc3n12	9.77
Cc1cccc(NC(=O)Nc2ccc(S(N)(=O)=O)cc2)c1	15.7
CC(=O)c1ccccc1NC(=O)COC(=O)c1ccc2c(c1)nc(C)n2-c1ccccc1	20.6
CCc1ccc(-c2csc3ncn(CC(=O)NCc4ccco4)c(=O)c23)cc1	4.89
CC(CCc1ccccc1)NS(=O)(=O)c1ccccc1 (stereo not shown)	5.27
Cc1ccc(S(=O)(=O)NC2(C(F)(F)F)NC(=O)N(Cc3ccccc3)C2=O)cc1 (stereo not shown)	8.16
O=C(Nc1nc(-c2ccccn2)cs1)C1CC1	14.3
COc1ccc(-c2csc3ncnc(N4CCN(S(=O)(=O)c5cccs5)CC4)c23)cc1	2.67
Cc1cc(OCc2cc(C(=O)N3CCC(Oc4cccnc4)CC3)no2)cc(C)c1Cl	2.98
CN(Cc1ccco1)C(=O)Cn1ncc2c([nH]c3ccccc32)c1=O	9.75
CN(c1ccccc1)S(=O)(=O)c1ccc(C(=O)Nc2nnc(-c3ccc(F)cc3)o2)cc1	14.4
CSc1nc2nc3c(cc2c(=O)n1-c1ccc(C)cc1)COC(C)(C)C3	11.2
COc1ccc(OC)c(N/C(=N/c2nc(C)cc(C)n2)NC(C)=O)c1	9.71

SMILES	hERG current change (%, negative = inhibition) at 1uM [%]
COc1ccc(-c2cc(=O)oc3c(C)c(O)ccc23)cc1	21.5
CCC(=O)NC(c1cccs1)c1cc(Cl)c2cccnc2c1O (stereo not shown)	12.4
COc1ccc2[nH]c(=O)c(-c3nnn(-c4ccc(F)cc4)n3)cc2c1	2.23
CCN(CC)c1ccc(/C=C/C(=O)c2ccc(Br)cc2)cc1	10.1
Cc1ccc(/C=C/C(=O)c2c(C)nc3ccccn23)cc1	-3.46
CC(NC(=O)C12CC3CC(C1)CC(n1cncn1)(C3)C2)C12CC3CC(CC(C3)C1)C2 (stereo not shown)	-19.9
COc1ccc(CNC(=S)Nc2ccc(F)c(Cl)c2)cc1	3.8
COc1cccc2c1Oc1ncccc1N(C(=O)CCC(=O)NCc1ccccc1)C2	5.29
Cc1cc(C)c(NC(=S)NC(=O)c2c(Cl)c(C)nn2C)c([N+](=O)[O-])c1	10.4
COC(=O)CSc1nnc(CNC(=O)c2ccccc2OC)n1-c1ccc(OC)cc1	2.24
CCOc1ccc(NC(=O)c2ccccc2C(=O)c2ccccc2)cc1OCC	16.3
Cc1nn(CC(=O)Nc2ccc(C(C)C)cc2)c(C)c1[N+](=O)[O-]	12
O=C(C(Cc1ccc(Cl)cc1)NS(=O)(=O)c1ccccc1)N1CC[C@@]2(O)CCCC[C@H]2C1 (stereo partly shown)	-18.5
CC(OCC(O)CN(C)Cc1nc2ccccc2c(=O)[nH]1)c1ccc(Cl)cc1 (stereo not shown)	-2.63
COc1ccc(-c2nn(-c3ccccc3)cc2C2CC(c3cccs3)=NN2C(=O)CCC(=O)O)cc1 (stereo not shown)	14.2
CCN(CC)CCn1c2c(c(SCC(=O)Nc3cc(OC)cc(OC)c3)nc1=O)CCC2	-41.6
Cc1c(OC(C)C(=O)NCCCN2CCOCC2)ccc2c3c(c(=O)oc12)CCC3 (stereo not shown)	16.5
CNC(=S)Nc1ccc(N2CCN(c3ccc(C(F)(F)F)cn3)CC2)nc1	13.4
N#CCCN=C(NS(=O)(=O)c1ccccc1)c1ccccc1	2.49
CCCNC(=O)N1[C@H]2CC[C@@H]1C(C(=O)OC)=C(c1cccc(Cl)c1)C2	51
N#Cc1c(N)n[nH]c1-c1cc2c([nH]1)CCCC2	-5.87
